Some of the results follow.

This test has as its target T1, OsWOX13 (Oryza sativa, UniProt Q5QMM3 1-267).
T1 sequence: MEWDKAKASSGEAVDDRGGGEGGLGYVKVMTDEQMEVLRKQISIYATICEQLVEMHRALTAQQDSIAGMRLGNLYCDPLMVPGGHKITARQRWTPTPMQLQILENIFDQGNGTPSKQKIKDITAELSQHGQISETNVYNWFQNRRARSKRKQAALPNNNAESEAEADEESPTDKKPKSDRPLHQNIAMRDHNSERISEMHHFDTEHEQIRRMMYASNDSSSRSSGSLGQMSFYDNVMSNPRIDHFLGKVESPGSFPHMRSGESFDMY
The test can be described thus: protein-binding microarray (RPBM); PBS, 2% BSA, 51.3 ng/ul salmon testes DNA, 50 uM zinc acetate, 200 nM TF, 25 C, 1 h; high values mean tight binding. Particulars: protein: recombinant; tags: N-terminal polyhistidine and DsRed monomer fusion (pET32a); label: CyDye5-dUTP incorporated in the synthesized complementary strand; 3' TTTTT single-stranded linker to array surface; dsDNA, one strand shown. The method, boiled down:
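Binding signal here means per-feature fluorescence intensity in arbitrary units. The values were read on an Axon 4000B scanner after a custom Agilent array, double-stranded by primer extension with Cy5-dUTP, was incubated with 200 nM protein at 25 °C for 1 h in PBS with 2% BSA, salmon testes DNA and 50 µM zinc acetate, then washed. The proteins were transcription factors with an N-terminal polyhistidine tag and DsRed, expressed in E. coli BL21-CodonPlus and purified on Ni–NTA.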
As to “AAAATTAGATTAGTCCCCTCCTACCCAGCTAACTACTGCTCGGAGTCACCTAGTGCAG”, the binding signal was 32600 fluorescence intensity (a.u.).

Take “GTCGACAAGATTGACCTCGATGTGCCCGCCGCCTGGGATGCGGAGTCACCTAGTGCAG”: the binding signal was 12600 fluorescence intensity (a.u.).

With “CAGCTGCAATTATTTGATGACGTAATTAAATCGAATTGAGCGGAGTCACCTAGTGCAG”, the binding signal was 26400 fluorescence intensity (a.u.).

Turning to “ACCACTTAATTTACTTCTTTTCATATGTGATCTCCATGTACGGAGTCACCTAGTGCAG”, the binding signal was 17600 fluorescence intensity (a.u.).

Take “CTGATTGATCCCCTTTGCAGAGTTACGTCCTTGTTAAGCACGGAGTCACCTAGTGCAG”: the binding signal was 46700 fluorescence intensity (a.u.).

With “GTCGATTTAATAGCTAATTTATACAATATAGTTGTCTATACGGAGTCACCTAGTGCAG”, the binding signal was 12300 fluorescence intensity (a.u.).

For “CTACTTTTGATTTGATTTGGAGTAGTACACTGATTTGATTCGGAGTCACCTAGTGCAG”, the binding signal is 26900 fluorescence intensity (a.u.).

Regarding “GCGAATGATGATTGCTGAAAACAAACATCCTGTAGCCCCACGGAGTCACCTAGTGCAG”, the binding signal is 37300 fluorescence intensity (a.u.).

Take “ATGACCAAATTTCTAACAGATACCAAAGGGCAAAATAGACCGGAGTCACCTAGTGCAG”: the binding signal was 3760 fluorescence intensity (a.u.).

In the case of “TTATAATTAGTGTCCAAACATCCGATGTGATAGGGACTTACGGAGTCACCTAGTGCAG”, the binding signal was 14200 fluorescence intensity (a.u.).

Turning to “AAAAGCACATGATTATATCTCATTTTATGGTCTTAGAGCACGGAGTCACCTAGTGCAG”, the binding signal was 3350 fluorescence intensity (a.u.).

For “ACTAATTAACCAGTGGAACTGTTGCTGTTGCTGTCATGCACGGAGTCACCTAGTGCAG”, the binding signal was 27400 fluorescence intensity (a.u.).

As for “TTACTAAATTAGGCGATTTTCGGGGCGTGACAGACCATTTCGGAGTCACCTAGTGCAG”, the binding signal is 7320 fluorescence intensity (a.u.).

Consider “TACATTTAAATTTTCCTCAATTATATCATCGTTGGGCAGACGGAGTCACCTAGTGCAG”, for which the binding signal is 9470 fluorescence intensity (a.u.).

“CACAAGATTGGCTACATGGGCATCGAGTAATGTAAATATTCGGAGTCACCTAGTGCAG”: the binding signal was 9910 fluorescence intensity (a.u.).

As to “GGCCTATTCAAATTGATGACATTTTCAACTATACCATTATCGGAGTCACCTAGTGCAG”, the binding signal is 6840 fluorescence intensity (a.u.).

Turning to “GATAATGACAATTATCCCGTGCGTTCGGATTAAGACGCCCCGGAGTCACCTAGTGCAG”, the binding signal was 26800 fluorescence intensity (a.u.).

For the sequence “ACACAGCAATTATTTCATTATTATTATTACCACACTGACCCGGAGTCACCTAGTGCAG”, the binding signal is 4230 fluorescence intensity (a.u.).

“GCTAGATTGCTATATTATGGGACGGAGGGAGTACTATCTACGGAGTCACCTAGTGCAG”: the binding signal was 9910 fluorescence intensity (a.u.).

Consider “CCAAATTTAATTTTACCTATTTTAAATGTGGCGATATATCCGGAGTCACCTAGTGCAG”, for which the binding signal is 17900 fluorescence intensity (a.u.).

As for “TAAATTTATATGGAAATTTATAGTCCGCTTTGGCACCTTGCGGAGTCACCTAGTGCAG”, the binding signal was 8680 fluorescence intensity (a.u.).

Take “CTGAATTACTCAAATCCAGTTACAATTAGCAGAAAACTGGCGGAGTCACCTAGTGCAG”: the binding signal is 4780 fluorescence intensity (a.u.).

For the sequence “GTAATTAGATTTAATCTAATGGGACATGGTTGCATGTAGCCGGAGTCACCTAGTGCAG”, the binding signal was 39600 fluorescence intensity (a.u.).

Regarding “GAGAATTTGCTACTAATTGACTTACCAATTTGGAATTTACCGGAGTCACCTAGTGCAG”, the binding signal is 23900 fluorescence intensity (a.u.).

Regarding “AGCCCATAATTATCTGGTCAAATGAATTAAATCATTATTTCGGAGTCACCTAGTGCAG”, the binding signal is 27800 fluorescence intensity (a.u.).

For “TGAAAATGATGTCAATCAAACATGAGTGGGGCCTGCTTTGCGGAGTCACCTAGTGCAG”, the binding signal was 38500 fluorescence intensity (a.u.).

In the case of “ACTTAATCCAAATTTGTTATATTAGGAGATGTCACATCCTCGGAGTCACCTAGTGCAG”, the binding signal was 8800 fluorescence intensity (a.u.).

“TCAAACAGCTATTAACGTGATCAAACATGCCTAATCTTGGCGGAGTCACCTAGTGCAG”: the binding signal was 4680 fluorescence intensity (a.u.).

With “CAGTAATCTGTTATCCTAACTGACAGCTGCTTATACCAAACGGAGTCACCTAGTGCAG”, the binding signal is 22300 fluorescence intensity (a.u.).

Take “TGTTTGTGATTTACTTTATTATCAAAAGTATTTTAAGTATCGGAGTCACCTAGTGCAG”: the binding signal is 6840 fluorescence intensity (a.u.).

As to “GACCCAATTAAAGTACAGTAATTTAGCTGAGATTTATCGCCGGAGTCACCTAGTGCAG”, the binding signal is 15700 fluorescence intensity (a.u.).

Take “TTTAATACTCTAAATTAGTATCTAAATACAGGGACTAAAGCGGAGTCACCTAGTGCAG”: the binding signal was 4580 fluorescence intensity (a.u.).

On to “GCTGGATTGAGGGGTGGATAGAGTGCTAGGCGAAATTACCCGGAGTCACCTAGTGCAG”, for which the binding signal is 7980 fluorescence intensity (a.u.).

As for “TCATAAACTGGAGTTGACAAACTGCTTGGTATACCGGTTACGGAGTCACCTAGTGCAG”, the binding signal is 14300 fluorescence intensity (a.u.).

As to “AGTACATAATTGGGCAAGACAAGGCCCATACAAATAGAGGCGGAGTCACCTAGTGCAG”, the binding signal was 16900 fluorescence intensity (a.u.).

In the case of “GCTTTAATGGACGATGAATGCCATATTACGTGAATTAGGCCGGAGTCACCTAGTGCAG”, the binding signal is 12400 fluorescence intensity (a.u.).

Turning to “AGTTTAATTAAAATGTTATGGCGGGCAAGCATTGCGGAAACGGAGTCACCTAGTGCAG”, the binding signal was 15700 fluorescence intensity (a.u.).

Consider “ACAAGTTTACTAATTTGAATCAAATTTTGGATGTTTTCATCGGAGTCACCTAGTGCAG”, for which the binding signal was 6050 fluorescence intensity (a.u.).

As for “TCGTAATGATTCCAGTGCAATCAACAGCTGGATCCTCTTTCGGAGTCACCTAGTGCAG”, the binding signal is 4590 fluorescence intensity (a.u.).

With “TATATAGATTGCTTCTTCAAGTAAACGAGATCTTTGCTAGCGGAGTCACCTAGTGCAG”, the binding signal is 20100 fluorescence intensity (a.u.).

“GGAAGATTAGTTTAATCCGACCCACGCATCGCCATGGACCCGGAGTCACCTAGTGCAG”: the binding signal is 9120 fluorescence intensity (a.u.).

“TTGAGAAGTCCATAATTGACTTTTAGATTTTGGAAAAGGGCGGAGTCACCTAGTGCAG”: the binding signal is 17500 fluorescence intensity (a.u.).
